In the supplement of paper PMC4166925:
± gives the standard deviation of the averaged measurements. Whole data set: some 33,000 sequences, median “E-score (dimensionless, -0.5 to 0.5)” near -0.049, cut for the highest 2% near 0.37. Some of the results follow.

Each sequence was assayed on T1, PmTbr T-box DNA-binding domain (GST fusion) (assay: PBM E-score of 8-mer (E-score (dimensionless, -0.5 to 0.5)); Tbr is Tbrain of the sea star Patiria miniata (Pm) or the sea urchin Strongylocentrotus purpuratus (Sp); higher = stronger binding preference; most listed sequences are background and not binding sites). Conditions: the construct has about 5 more residues each side.
T1 sequence: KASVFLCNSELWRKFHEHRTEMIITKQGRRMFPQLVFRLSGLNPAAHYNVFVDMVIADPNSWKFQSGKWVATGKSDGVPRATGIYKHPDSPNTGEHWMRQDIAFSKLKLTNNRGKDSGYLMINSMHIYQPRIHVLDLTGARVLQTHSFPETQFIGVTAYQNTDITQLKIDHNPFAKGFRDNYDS
Method in brief: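 Expression of GST-fused Tbr T-box DNA-binding domains, each holding the full T-box plus roughly five flanking residues, was carried out in BL21 E. coli at 20 °C, with purification by glutathione affinity chromatography. Universal Agilent arrays made double-stranded by primer extension were incubated with the protein at 200 nM in PBS (pH 7.5), then scanned and quantified. All ungapped 8-mers were scored from probe intensities, and each received an enrichment E-score from the Universal PBM Analysis Suite, averaged over duplicate arrays.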

In order of falling “PBM E-score of 8-mer” value:
1. AGTAGGTG  0.4125 ± 0.00071
2. GGTGCAAA  0.393 ± 0.0071
3. ATGGTGTG  0.383 ± 0.0049
4. GCGCGATA  0.337 ± 0.011
5. AATTTCAC  0.328 ± 0.027
6. ATGACACG  0.312 ± 0.017
7. ATTGTGTG  0.269 ± 0.0039
8. GGTCGACA  0.266 ± 0.016
9. CCAAACAC  0.263 ± 0.022
10. ACGGTGTC  0.26 ± 0.076
11. GCTTTCAC  0.26 ± 0.011
12. ACACTGTC  0.254 ± 0.0087
13. ACCTCCGA  0.253 ± 0.033
14. CACCCCCA  0.235 ± 0.012
15. ACATATGT  0.229 ± 0.029
16. CACCCCCG  0.216 ± 0.014
17. GTTGACGA  0.211 ± 0.012
18. ATCTTCAC  0.209 ± 0.046
19. CTATTGGC  0.203 ± 0.029
20. GCGCAAAC  0.188 ± 0.0069
21. AACACAAC  0.188 ± 0.048
22. GGTGGGGA  0.187 ± 0.091
23. CGACTCGC  0.1856 ± 0.00035
24. ACAACTCT  0.185 ± 0.013
25. GTCTAACA  0.173 ± 0.084
26. ACAACTGA  0.172 ± 0.019
27. AGTGTAAT  0.169 ± 0.029
28. CTCTATCA  0.166 ± 0.044
29. GCGTCAGC  0.166 ± 0.0083
30. CACGTTCA  0.1626 ± 0.001
31. ATGTGTTC  0.156 ± 0.025
32. ATCATGTC  0.156 ± 0.056
33. AGGACAAA  0.152 ± 0.031
34. CCTTGCGC  0.147 ± 0.004
35. GTTACACA  0.144 ± 0.0086
36. CGATCTGA  0.144 ± 0.026
37. ATGTTGAC  0.142 ± 0.011
38. CGCTATAC  0.142 ± 0.0027
39. ATCCAACA  0.137 ± 0.0041
40. AGCGTCGC  0.136 ± 0.0041
41. CACGATGA  0.133 ± 0.024
42. ACAATTTG  0.13 ± 0.025
43. CGATAAAC  0.13 ± 0.045
44. TACACCCA  0.129 ± 0.046
45. ACCGGTGA  0.127 ± 0.029
46. GACCCTGA  0.125 ± 0.04
47. AGGTTTTG  0.115 ± 0.081
48. AGTCCGCG  0.111 ± 0.033
49. ATGGCGAG  0.111 ± 0.062
50. ATTGAGTC  0.11 ± 0.014
51. ATGTTGCG  0.109 ± 0.013
52. CCAACAAG  0.103 ± 0.017
53. ACTGTGCG  0.102 ± 0.022
54. ATAACGAC  0.0976 ± 0.012
55. CAGTAGCA  0.0969 ± 0.018
56. ACGTGTCC  0.0892 ± 0.034
57. AAACCCGT  0.0862 ± 0.011
58. CCCACACG  0.0862 ± 0.0074
59. CTATCAAC  0.0836 ± 0.077
60. ACATCTTA  0.0796 ± 0.025
61. ATCGTTAA  0.0777 ± 0.0012
62. ATGTTTTG  0.0763 ± 0.032
63. CCACGAGG  0.0714 ± 0.04
64. AAACGGCG  0.071 ± 0.062
65. CACTAAAC  0.07093 ± 0.00042
66. CTAGCTGA  0.0629 ± 0.025
67. CATAGCAG  0.0581 ± 0.06
68. CACCATAC  0.0544 ± 0.0027
69. AACCGCTG  0.0537 ± 0.018
70. ACTTCCAC  0.0492 ± 0.063
71. CCAACGAC  0.0479 ± 0.05
72. CCTGGTAC  0.0451 ± 0.018
73. ACCCTCCT  0.0385 ± 0.044
74. ACGCGAGT  0.0375 ± 0.014
75. ACCCTGTA  0.0344 ± 0.052
76. ACGCTTCA  0.0342 ± 0.072
77. CAACTCTC  0.0306 ± 0.039
78. AAGTTAAC  0.0306 ± 0.046
79. CCGGGCGA  0.0305 ± 0.02
80. GTATGTTA  0.0298 ± 0.051
81. GCTTCCCA  0.0286 ± 0.02
82. CGTATGTC  0.0273 ± 0.03
83. CCCACGAC  0.0262 ± 0.048
84. CCAACTCC  0.0245 ± 0.013
85. ATAAATTA  0.0236 ± 0.12
86. ATATCGAT  0.0212 ± 0.035
87. AACGGGGG  0.0167 ± 0.04
88. GTTTCTAA  0.01 ± 0.0033
89. CCGAAGCG  0.00215 ± 0.00026
90. CTATGCTA  0.0008 ± 0.027
91. CATACGGA  -0.00485 ± 0.015
92. ACTGTACT  -0.00485 ± 0.042
93. ACCAGTCA  -0.00763 ± 0.01
94. GCGGAGCA  -0.0103 ± 0.033
95. CGTTACAG  -0.012 ± 0.013
96. AAATTGCA  -0.0135 ± 0.074
97. GATTAGTA  -0.0148 ± 0.03
98. ACAGCGGC  -0.015 ± 0.0098
99. CCAATCCC  -0.0159 ± 0.014
100. GGCGTTTA  -0.0165 ± 0.031
101. GATTGAGC  -0.0167 ± 0.033
102. AAGCAGGG  -0.0186 ± 0.012
103. AAAGCACG  -0.0186 ± 0.0062
104. AAATATAA  -0.0204 ± 0.061
105. AAGACCTG  -0.0244 ± 0.028
106. TGCAGAAA  -0.0308 ± 0.095
107. CGCATAGC  -0.0328 ± 0.038
108. GATTAATA  -0.0328 ± 0.028
109. CAAATTTG  -0.0336 ± 0.084
110. AAAGCGAG  -0.0361 ± 0.052
111. CGAAAGGA  -0.0387 ± 0.049
112. AGGTACCA  -0.0398 ± 0.018
113. GCCGAGTA  -0.0427 ± 0.048
114. AAACTGTA  -0.0465 ± 0.018
115. ATAATAGG  -0.0476 ± 0.018
116. CTGTCCAC  -0.0488 ± 0.05
117. CATACTAG  -0.0501 ± 0.02
118. GAAATTGA  -0.0565 ± 0.0088
119. GAGAATTA  -0.0566 ± 0.036
120. CTCTATTA  -0.0585 ± 0.07
121. AGAGTATC  -0.0617 ± 0.035
122. AAACCGCA  -0.0644 ± 0.097
123. CAGTGCAA  -0.065 ± 0.002
124. AATCAGGC  -0.0653 ± 0.098
125. AAGGGACA  -0.0677 ± 0.0034
126. ACCTCCGG  -0.0697 ± 0.072
127. CCTGTATC  -0.0718 ± 0.014
128. GGGGCGAA  -0.0721 ± 0.014
129. CTATTTTA  -0.0734 ± 0.15
130. ACTACAGC  -0.075 ± 0.044
131. CCTACACG  -0.0773 ± 0.012
132. CCCTACAG  -0.0807 ± 0.071
133. TCGGGACA  -0.0831 ± 0.085
134. TACGTATA  -0.0845 ± 0.049
135. GAGTGAGC  -0.0853 ± 0.0095
136. GCTGCAAC  -0.0887 ± 0.058
137. ACTCGTCT  -0.094 ± 0.038
138. AAGATATT  -0.0991 ± 0.056
139. CCATTACG  -0.0993 ± 0.055
140. GCGTGGGA  -0.0996 ± 0.047
141. TGCGGGAA  -0.102 ± 0.05
142. AGAATCCA  -0.104 ± 0.0065
143. GGCTTACA  -0.113 ± 0.034
144. GTTAAAGA  -0.117 ± 0.12
145. ACAGCAGA  -0.119 ± 0.028
146. AAATACCA  -0.119 ± 0.062
147. TTAATGAA  -0.121 ± 0.067
148. ACGAAGAT  -0.123 ± 0.024
149. GTCTCAGA  -0.127 ± 0.024
150. GTCTACGA  -0.127 ± 0.013
151. CGAGGGAA  -0.134 ± 0.055
152. ACCAGACC  -0.136 ± 0.013
153. GATTGGGC  -0.142 ± 0.038
154. GGAAAACA  -0.142 ± 0.064
155. ACTATCTC  -0.143 ± 0.0046
156. ACGTACGA  -0.143 ± 0.083
157. AGTTGTCC  -0.145 ± 0.027
158. CCCGGTTC  -0.145 ± 0.015
159. CAGGGGGA  -0.147 ± 0.025
160. CAAACGTA  -0.147 ± 0.003
161. ATCTAAGC  -0.151 ± 0.0099
162. AAGCACTC  -0.159 ± 0.058
163. GGGCCGGA  -0.161 ± 0.012
164. GGATGGCA  -0.161 ± 0.015
165. AAACCGAG  -0.165 ± 0.054
166. GAAGCTAC  -0.167 ± 0.019
167. ACCAGACG  -0.168 ± 0.14
168. GTTTACTA  -0.169 ± 0.013
169. CTCTCCAG  -0.171 ± 0.04
170. AGCCCGTG  -0.171 ± 0.049
171. GCCCTCCA  -0.174 ± 0.048
172. AGGGTTCA  -0.176 ± 0.056
173. GGACATCC  -0.177 ± 0.049
174. CAGAGGGG  -0.178 ± 0.021
175. CGTTGGCC  -0.179 ± 0.023
176. AGATATAG  -0.179 ± 0.022
177. GGGGAATA  -0.181 ± 0.046
178. CCGGCTTA  -0.182 ± 0.014
179. AAGGCTAG  -0.193 ± 0.047
180. ACGAGGCC  -0.193 ± 0.045
181. TAAAACAA  -0.194 ± 0.037
182. CATCTATC  -0.196 ± 0.023
183. AAAGCTTC  -0.197 ± 0.049
184. TGTCCTAA  -0.199 ± 0.11
185. ACTGACCT  -0.201 ± 0.084
186. AGTTATCC  -0.205 ± 0.019
187. AAGAGAAA  -0.205 ± 0.029
188. GATTCAGA  -0.206 ± 0.0085
189. AAGGTCAG  -0.21 ± 0.054
190. CGGGTTAG  -0.215 ± 0.036
191. AGGTCTAG  -0.216 ± 0.049
192. AATTGAGC  -0.221 ± 0.044
193. AATACCAG  -0.222 ± 0.015
194. CCAAAGGG  -0.223 ± 0.0054
195. AGATCAAC  -0.228 ± 0.076
196. AGTAAGAA  -0.229 ± 0.0037
197. ATCTACCC  -0.231 ± 0.071
198. AAGGGAAA  -0.237 ± 0.0069
199. CGGAACGA  -0.238 ± 0.082
200. GCTCAACC  -0.238 ± 0.0053
201. GCTTGCCC  -0.245 ± 0.0072
202. AGGGCAAA  -0.249 ± 0.017
203. CAGTACGG  -0.25 ± 0.0095
204. GGGAACAA  -0.2556 ± 0.00058
205. GACCGCTC  -0.257 ± 0.034
206. GCATTCTA  -0.263 ± 0.011
207. CAGCCGTA  -0.272 ± 0.0054
208. AGGCTACC  -0.275 ± 0.003
209. GAGTCTAC  -0.282 ± 0.068
210. GCATAATA  -0.284 ± 0.049
211. AGTATGGA  -0.289 ± 0.013
212. AGGACGGA  -0.29 ± 0.059
213. TCGGGGAA  -0.295 ± 0.012
214. AGCTCCCC  -0.3 ± 0.072
215. AGTGGTCC  -0.302 ± 0.016
216. ATACCAGA  -0.307 ± 0.026
217. GTACCGTA  -0.312 ± 0.0072
218. GTAATGTA  -0.3336 ± 0.0019
219. AAAGCAAT  -0.364 ± 0.055
